Source: the CheMixHub ionic liquid set
Further values from the same series stand in other lists.

Assay: xn = mol fraction of the nth substance listed
Settings: for electrical conductivity: 101 kPa; for viscosity: 328.15 K, 100.3 kPa

CCCC[n+]1ccn(C)c1.CS(=O)(=O)[O-] + O
Settings | electrical conductivity [S/m]
298.15 K, x2 = 0.704 | 0.578
302.15 K, x2 = 0.785 | 1.33
303.15 K, x2 = 0.704 | 0.72
305.15 K, x2 = 0.704 | 0.784
307.15 K, x2 = 0.785 | 1.59
309.15 K, x2 = 0.796 | 1.75
312.15 K, x2 = 0.796 | 1.92
319.15 K, x2 = 0.704 | 1.31
321.15 K, x2 = 0.704 | 1.4
321.15 K, x2 = 0.796 | 2.48
322.15 K, x2 = 0.704 | 1.44
322.15 K, x2 = 0.796 | 2.55
325.15 K, x2 = 0.704 | 1.58
325.15 K, x2 = 0.796 | 2.76
327.15 K, x2 = 0.704 | 1.76
330.15 K, x2 = 0.796 | 3.13
331.15 K, x2 = 0.704 | 1.91
337.15 K, x2 = 0.796 | 3.68
338.15 K, x2 = 0.796 | 3.77
342.15 K, x2 = 0.785 | 3.92
344.15 K, x2 = 0.704 | 2.75
345.15 K, x2 = 0.785 | 4.2
345.15 K, x2 = 0.796 | 4.39
346.15 K, x2 = 0.704 | 2.89
346.15 K, x2 = 0.796 | 4.52
347.15 K, x2 = 0.796 | 4.54
349.15 K, x2 = 0.796 | 4.81
353.15 K, x2 = 0.704 | 3.46
353.15 K, x2 = 0.785 | 4.91
353.15 K, x2 = 0.796 | 5.09
355.15 K, x2 = 0.704 | 3.65

CCCC[n+]1ccn(C)c1.C[C@H](N)C(=O)[O-] + O
Settings | viscosity [mPa·s]
x1 = 0.002927 | 0.58
x1 = 0.004981 | 0.625
x1 = 0.007048 | 0.672
x1 = 0.009016 | 0.717
x1 = 0.01103 | 0.764
x1 = 0.01317 | 0.807
x1 = 0.01511 | 0.851
x1 = 0.01781 | 0.911
